Experimental data as given in the RNAGym collection of RNA variant scans (doi:10.7554/elife.90254).
The source gives no read counts; variants with many changes may rest on few reads.

B1: OR4K15 (parent)
chain: GUUAACGGUCAUAGGCCAUGGAAACUAGGAGCACCAUUUCGCUGCCAGUGAAGAAAUGAACAAAGAAAAUCUGGGCCAGGCAGGCAUCAAAAGAAAUAGUCUUGCGCUCAACCAGAAAGUCUGUAAUCAUUUUAAGGGUA

Variants of: B1
Assay: self-cleavage, relative activity (ratio to wild type); higher = more cleavage; in vitro, sequencing; the parent is a self-cleaving ribozyme
In the case of GUUAACGGUCAUAGGCCAUGGAAACUAGGAGCACCAUUUCGCUGCCAGUGAAGAAAUGAACAAAGAAAAUCUGGGCCUGGCAGGCAUCAAAAGGAAUAGUCUUGCGCUCAACCAGAAAGCCUGUAAUCAUUUUAAGGGUA [A78U A94G U120C], the self-cleavage is reported as 0.24. In the case of GUUAACGGUCAUAGGCCAUGGAAACUAGGAGCACCAUUUCGCUGCCAGUGAAGAAAUGAACAAAGAAAAUCUGGGCCGGGCAGGCAUCAAAAGAAAUAGUCUUGCGCUCAACCAGAAAGUCUGUAACCAUUUUAAUGGUA [A78G U127C G136U], the self-cleavage is reported as 0.25. With GUUAACGGUCAUAGGCCAUGGAAACUAGGAGCACCAUUUCGCUGCCAGUGAAGAAAUGAACAAAGAAAAUCUGGGCCUGGCAGGCAUCAUAAGAAAUAGUCUUGCGCUCAACCAGAAAGUCUGUAAUCACUUUAAGGGUA [A78U A90U U130C] the self-cleavage was 0.09. GUUAACGGUCAUAGGCCAUGGAAACUAGGAGCACCAUUUCGCUGCCAGUGAAGAAAUGAACAAAGAAAAUCUGGGCCAGGUAGGCAUCAAAAGAAACAGUCUUGCGCUCAGCCAGAAAGUCUGUAAUCAUUUUAAGGGUA [C81U U97C A111G] showed a self-cleavage of 0. Variant GUUAACGGUCAUAGGCCAUGGAAACUAGGAGCACCAUUUCGCUGCCAGUGAAGAAAUGAACAAAGAAAAUCUGGGCCUGGCAUGCAUCAAAAGAAAUAGUCUUGCGCUCAACCAGAAAGUCUGUGAUCACUUUAAGGGUA [A78U G83U A125G U130C] has a self-cleavage of 0.01. GUUAACGGUCAUAGGCCAUGGAAACUAGGAGCACCAUUUCGCUGCCAGUGAAGAAAUGAACAAAGAAAAUCUGGGCCUGGCAGGCAUCAAAAGAAAUAGCCUCGCGCCCAACCAGAAAGUCUGUAAUCAUUUUAAGGGUA [A78U U100C U103C U108C] gave a self-cleavage of 0.01. For GUUAACGGUCAUAGGCCAUGGAAACUAGGAGCACCAUUUCGCUGCCAGUGAAGAAAUGAACAAAGAAAAUCUGGGCCGGGCAGGCAUCAAAAGAAAUAGCCUUGCGCUCAACCAGAAAGUCGGUAAUCAUUUUAAGGGUA [A78G U100C U122G], the self-cleavage was 0.72. Variant GUUAACGGUCAUAGGCCAUGGAAACUAGGAGCACCAUUUCGCUGCCAGUGAAGAAAUGAACAAAGAAAAUCUGGGCCAAGCAGGCAUCAAAAGAAAUAGUCUUGCGCUCAACCAGAGAGUCUGUAAUUAUUUUAAGGGUA [G79A A117G C128U] has a self-cleavage of 0.13. With GUUAACGGUCAUAGGCCAUGGAAACUAGGAGCACCAUUUCGCUGCCAGUGAAGAAAUGAACAAAGAAAAUCUGGGCCUGGCGGGCAUCAAAAGAAAUAGUCUUGCGCUCAACCAGAGGGUCUGUAAUCACUUUAAGGGUA [A78U A82G A117G A118G U130C] the self-cleavage was 0.07. For GUUAACGGUCAUAGGCCAUGGAAACUAGGAGCACCAUUUCGCUGCCAGUGAAGAAAUGAACAAAGAAAAUCUGGGCCACGCAGGCAUCAAAAGAUAUAGUCCUGCGCUCAACCGGGAAGUCUGUAAUCAUUUUAAGGGUA [G79C A95U U102C A114G A116G], the self-cleavage was 0.02. Work on GUUAACGGUCAUAGGCCAUGGAAACUAGGAGCACCAUUUCGCUGCCAGUGAAGAAAUGAACAAAGAAAAUCUGGGCCUGGCAGGCAUCAAAAGAAAUAGUCUUGCGCUCAACCAGGAAGUCUGUAAUCAUUUUAAGGAUA [A78U A116G G138A] yielded a self-cleavage of 0.22. Variant GUUAACGGUCAUAGGCCAUGGAAACUAGGAGCACCAUUUCGCUGCCAGUGAAGAAAUGAACAAAGAAAAUCUGGGCCUGGCAGGCAUCAAAAGAAAUAGCCUUGCGCUCAACCAGAGAGUCUGUAAUCAUUUUAAGGGUA [A78U U100C A117G] has a self-cleavage of 1.26. GUUAACGGUCAUAGGCCAUGGAAACUAGGAGCACCAUUUCGCUGCCAGUGAAGAAAUGAACAAAGAAAAUCUGGGCCAGGCGGGCAUCAAGAGAAAUGGUCUUGCGCUCAACCAGAAAGUCUGUAAUCAUUUUAAGGGUA [A82G A91G A98G] showed a self-cleavage of 0.07. Variant GUUAACGGUCAUAGGCCAUGGAAACUAGGAGCACCAUUUCGCUGCCAGUGAAGAAAUGAACAAAGAAAAUCUGGGCCAGACAGGCAUCAAAAGAAAUAGUCCUGCGCUCAACCAGAAAGUCUGUAAUCAUUUUAAGGGUG [G80A U102C A140G] has a self-cleavage of 1.07. For GUUAACGGUCAUAGGCCAUGGAAACUAGGAGCACCAUUUCGCUGCCAGUGAAGAAAUGAACAAAGAAAAUCUGGGCCAGACAGGCAUCAAAAGAAAUAGUCACGCGCUCAACCAGAGAGUCUGUAAUCAUUUUAAGGGUA [G80A U102A U103C A117G], the self-cleavage was 0.04. GUUAACGGUCAUAGGCCAUGGAAACUAGGAGCACCAUUUCGCUGCCAGUGAAGAAAUGAACAAAGAAAAUCUGGGCCGGGCAGGCAACAAAAGGAAUAGUCUUGCGCCCAACCAGAAAGUCUGUAAUCAUUUUAAGGGAA [A78G U87A A94G U108C U139A] showed a self-cleavage of 0.01. Work on GUUAACGGUCAUAGGCCAUGGAAACUAGGAGCACCAUUUCGCUGCCAGUGAAGAAAUGAACAAAGAAAAUCUGGGCCUGGCAGGCAUCAAAAGAAAUAGUCCUGCGCCCAACCAGAAAGUCUGUAAUCAUUUUAAGGGUA [A78U U102C U108C] yielded a self-cleavage of 0.01. For GUUAACGGUCAUAGGCCAUGGAAACUAGGAGCACCAUUUCGCUGCCAGUGAAGAAAUGAACAAAGAAAAUCUGGGCCAGGCCGGCAUCAAAAGAAAUGGUCUUGCGCUCAGCCAGAAAGUCUGUAAUCAUUUUAAGGGUA [A82C A98G A111G], the self-cleavage was 0.03. GUUAACGGUCAUAGGCCAUGGAAACUAGGAGCACCAUUUCGCUGCCAGUGAAGAAAUGAACAAAGAAAAUCUGGGCCUGGCAGGCAUCAAAAGAAACAGUCUUGCGCUCAACCAGAAAGCCUGUAAUCAUUUUAAGGGUA [A78U U97C U120C] gave a self-cleavage of 0.15. GUUAACGGUCAUAGGCCAUGGAAACUAGGAGCACCAUUUCGCUGCCAGUGAAGAAAUGAACAAAGAAAAUCUGGGCCUGGCGGGCAUCAAAAGAAAUAGUCUUGCACUCAACCAGAAAGUCCGUAAUCAUUUUAAGGGUA [A78U A82G G106A U122C] showed a self-cleavage of 0.01.
